Here are results for 55 molecules from PubChem BioAssay AID1645887 (National Center for Advancing Translational Sciences (NCATS), 2021).

Several values for one entry are separate records, joined by “and”; a condition that tells them apart may be missing. Identical values can stand only once. About 40 (0.2%) of roughly 16,000 compounds were called active. Roughly 1% stayed inconclusive and do not appear here. The call rests on the fitted dose curve; in most records, active means well fitted activation curve with a large enough effect; inconclusive means small, poorly fitted or top-dose-only effect, or another doubt; inactive means no such curve, though single readings can be large or run the other way. The list shows a part of the results.
On the % scale 0 is the no-effect control and ±100 the full control effect.

This experiment addresses Rap guanine nucleotide exchange factor 4 (Homo sapiens) (UniProt Q8WZA2). The experiment can be described thus: Validation qHTS for agonist of cAMP-regulated guanine nucleotide exchange factor 4 (EPAC2).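 Further: exchange makes BODIPY-GDP fluorescence drop when released from Rap1B; series mostly up to about 150 µM.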 The conditions noted are these: EPAC2 Rap1B BODIPY-GDP exchange, fluorescence; activation: stronger effect = higher value. The essentials: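 Signal normalized against 6.5 mM cAMP as agonist control. Mix of EPAC2 (100 nM), RAP1B-BODIPY-GDP (250 nM) and GDP (50 uM) was read kinetically at 480/540 nm, every 5 min over 30 min, after 5 min room-temperature incubation with compound.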
UniProt Q8WZA2, sequence (Q8WZA2 whole entry, looked up): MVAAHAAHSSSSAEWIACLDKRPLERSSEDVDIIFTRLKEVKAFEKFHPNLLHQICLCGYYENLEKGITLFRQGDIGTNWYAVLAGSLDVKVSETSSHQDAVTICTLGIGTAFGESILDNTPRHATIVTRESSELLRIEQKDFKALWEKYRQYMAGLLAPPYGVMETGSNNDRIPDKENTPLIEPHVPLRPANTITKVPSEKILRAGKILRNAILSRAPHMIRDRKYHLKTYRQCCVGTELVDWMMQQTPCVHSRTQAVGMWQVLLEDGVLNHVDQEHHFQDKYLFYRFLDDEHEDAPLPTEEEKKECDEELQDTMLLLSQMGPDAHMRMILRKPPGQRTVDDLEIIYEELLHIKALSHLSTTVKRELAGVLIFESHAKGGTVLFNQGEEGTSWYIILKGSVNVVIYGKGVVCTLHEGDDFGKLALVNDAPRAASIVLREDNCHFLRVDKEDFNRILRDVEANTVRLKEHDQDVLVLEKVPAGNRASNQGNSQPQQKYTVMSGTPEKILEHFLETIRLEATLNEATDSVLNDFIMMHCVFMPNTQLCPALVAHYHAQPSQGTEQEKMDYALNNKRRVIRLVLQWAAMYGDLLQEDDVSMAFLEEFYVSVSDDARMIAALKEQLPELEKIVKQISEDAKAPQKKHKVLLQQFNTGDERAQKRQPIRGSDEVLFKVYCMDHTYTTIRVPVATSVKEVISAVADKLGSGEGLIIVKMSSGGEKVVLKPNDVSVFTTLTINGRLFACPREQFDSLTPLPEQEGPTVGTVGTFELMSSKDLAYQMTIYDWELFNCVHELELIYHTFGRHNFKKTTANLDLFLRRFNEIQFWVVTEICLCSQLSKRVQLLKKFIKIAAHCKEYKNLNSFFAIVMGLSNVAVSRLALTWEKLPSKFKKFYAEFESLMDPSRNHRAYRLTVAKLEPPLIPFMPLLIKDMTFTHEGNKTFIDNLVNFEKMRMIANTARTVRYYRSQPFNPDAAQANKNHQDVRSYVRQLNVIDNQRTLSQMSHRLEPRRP
Turning to `Nc1ncnc2c1ncn2[C@@H]1O[C@H](COP(=O)(O)OP(=O)(O)OC[C@H]2OC(O)[C@H](O)[C@@H]2O)[C@@H](O)[C@H]1O` (stereo not given in full), the activation was inactive: -3.1%.
The same measure for `COc1ccccc1CCn1c(=O)cnc2cncnc21`: inactive: -7.61%; for `N#Cc1ccc(CN2CCC3(CC2)CCN(C(=O)c2cccc(F)c2)CC3)cc1`: inactive: -10.5%.
With `COc1cccc(-c2cncnc2NCc2cccnc2)c1` the figure was inactive: -5.53%; with `COc1cccc(-c2ccc(O)c(CNC(c3ccccc3)c3ccc(Cl)cc3)c2)n1` (stereo not given), inactive: 2.58%; with `COc1cc2nc(N(C)C)c(CNCc3nonc3C)cc2c(OC)c1OC`, inactive: -13.3%.
With `FC(F)(F)c1cc(CN2CC3(CCNCC3)C2)cc(C(F)(F)F)c1` the figure was inactive: 1.1%.
On to `O=c1c(-c2cccc(F)c2)nc2cncnc2n1Cc1ccc(F)cc1`, for which the activation is inactive: 5.27%.
For `CN(C)c1ncc2nc(-c3cn(C)c4ccccc34)c(=O)n(C[C@H]3CCCO3)c2n1`, the activation was inactive: -6.67%.
The same measure for `Cn1cccc1C(=O)N1CCC[C@@]2(CCN(c3ncccn3)C2)C1`: inactive: -12.3%.
With `CN1CC[C@@]2(CCCN(C(=O)c3cccn3C)C2)C1` the figure was inactive: -24.2%; with `OCc1cc([C@@H](O)CNCCCCCCOCCCCc2ccccc2)ccc1O`, inactive: -35.4%.
The same measure for `COC(=O)N1CCC2(CCCN(c3cccc(-c4ccccc4)c3)C2)CC1`: inactive: 10.3%.
Turning to `CC(C)(Oc1ccc(C2CCCc3ccccc32)cc1)C(=O)O` (stereo not given), the activation was inactive: -5.33%.
For `Cc1ccc2cc(CNC(C)CO)c(N3CCC(O)CC3)nc2c1` (stereo not given), the activation was inactive: -2.55%.
With `CC(=O)O[C@]1(C)CC[C@]23CC1C(C)(C)C2CC[C@@H]3C` (stereo not given in full) the figure was inactive: -14.3%; with `CN(C)c1ccc(/C=C/c2ccnc3ccccc23)cc1[N+](=O)[O-]`, inactive: -6.84%.
With `O=C1CCC[C@@H]2C[C@@]3(C[C@@H]4CCN1[C@H]24)Nc1cc([N+](=O)[O-])ccc1NC3=NCc1ccccc1`, the activation is inactive: -5.87%.
The same measure for `COc1ccc(-c2ccc3cc(C(=O)O)ccc3c2)cc1C12CC3CC(CC(C3)C1)C2`: inactive: -11.6%.
Turning to `O=C(O)/C=C/C(=O)Nc1ccc(S(=O)(=O)Nc2nccs2)cc1`, the activation was inactive: -4.2%.
For `C[C@@]12C(=O)OC(=O)[C@@]1(C)[C@@H]1CC[C@@H]2O1`, the activation was inactive: -29.3%.
The same measure for `COc1c2c(nc3occc13)C(CC=C(C)C)(OC)C(=O)C=C2` (stereo not given): inactive: -18.8%.
The same measure for `COc1ccc(-n2c(=O)cnc3cnc(N4CCN(C)CC4)nc32)cc1`: inactive: -6.38%.
For `C=C[C@@H]1c2ccccc2N(S(=O)(=O)c2ccc(C)cc2)[C@H](c2ccc(OC(C)=O)cc2)C1(C#N)C#N`, the activation is inactive: -28.4%.
As for `FC(F)(F)c1ccccc1-c1nccc(NCc2ccccc2)n1`, the activation is inactive: -25.8%.
The same measure for `COCCn1c(=O)c(-c2cccs2)nc2cnc(Oc3ccc(OC)cc3)nc21`: inactive: 3.9%; for `Cc1nc2cc(NC(=O)[C@@H]3C[C@@H](Sc4ccccn4)CN3Cc3ccc4c(c3)OCCO4)ccc2s1`: inactive: 0.873%; for `CC(=O)OCC1=C(C(=O)O)N2C(=O)[C@@H](NC(=O)Cc3ccccc3)[C@H]2SC1`: inactive: 7.17%.
As for `CCN1CCCC1CNC(=O)c1cc(S(N)(=O)=O)ccc1OC` (stereo not given), the activation was inactive: 0.769% [middle of 4 runs].
Take `C[N+]1(CC(=O)c2ccccc2)CCc2ccccc2C1` (stereo not given): the activation was inactive: -15%.
With `CC(=O)OC1CCC2(C)C(CCC3(C)C2C(=O)C=C2C4CC(C)(C(=O)OCCN5CCCCC5)CCC4(C)CCC23C)C1(C)C` (stereo not given) the figure was inactive: -8.66%; with `CN1[C@H](CC(=O)c2ccccc2)CCC[C@H]1C[C@H](O)c1ccccc1`, inactive: 5.74%; with `O=C(c1ccc(OCCCc2cnc[nH]2)cc1)C1CC1`, inactive: -3.61%.
The same measure for `COCC(=O)N1CCC2(CC1)CN(Cc1ccc(C#N)cc1)C2`: inactive: 0.163%; for `C[C@]12CCC(=O)C=C1CCC1C2C(O)C[C@]2(C)C1CC[C@]2(O)C(=O)CO` (stereo not given in full): inactive: -12.8%; for `CC(=O)OC1CCC2(C)C3=C(CCC2C1(C)C)[C@@]1(C)CCC(C(C)CCC=C(C)C)[C@@]1(C)CC3` (stereo not given in full): inactive: -10.4%.
With `c1ccc2ccccc2c1` the figure was inactive: -7.81%.
`O=C(O)c1cc2cc(F)ccc2[nH]1`: the activation was inactive: -17.2% and inactive: -10.3%.
On to `CN1CCN(c2ncc3nc(-c4cccs4)c(=O)n(-c4ccccc4)c3n2)CC1`, for which the activation is inactive: 18%.
As for `O=c1c(-c2cccc(Cl)c2)nc2cncnc2n1Cc1ccccc1`, the activation is inactive: 0.466%.
For `O=C1C(Nc2ccccc2)=CC(=O)c2ncccc21`, the activation was inactive: -9.69%.
Regarding `CC(=O)NCCNc1ncncc1-c1ccccc1C`, the activation is inactive: 1.68%.
With `CCOC(=O)C[C@H]1c2ccccc2S(=O)(=O)N1Cc1ccc(Cl)cc1` the figure was inactive: -16.7%; with `CCCCCCCCCCCC(=O)[O][Sn]([CH2]CCC)([CH2]CCC)[O]C(=O)CCCCCCCCCCC`, inactive: -9.87%; with `COCCn1c(=O)c(CCc2ccccc2)nc2cnc(N3CCNCC3)nc21`, inactive: -17.7%.
With `CC(C)(C)c1nnc(NS(=O)(=O)c2ccccc2)s1` the figure was inactive: -0.0702%; with `CCOC(=O)C[n+]1cccc(Br)c1`, inactive: -19.4%.
The same measure for `CCCCCCCNS(=O)(=O)c1cccc2c(Cl)cccc12`: inactive: -22.8%.
Turning to `Cn1c(=O)c(-c2cc(F)cc(F)c2)nc2cncnc21`, the activation is inactive: -11.2%.
As for `Cc1cc(=O)c(C(=O)N[C@@H](C(=O)N[C@@H]2C(=O)N3C(C(=O)O)=C(CSc4nnnn4C)CS[C@H]23)c2ccc(O)cc2)c[nH]1`, the activation is inactive: 7.25%.
The same measure for `CCCCc1oc2ccccc2c1C(=O)c1cc(I)c(OCCN(CC)CC)c(I)c1`: inactive: -14.8% [middle of 5 runs]; for `CC(C)[C@H]1COCCS(=O)(=O)N1Cc1cccc(Cl)c1`: inactive: -26%; for `CN(Cc1cnc2nc(N)nc(N)c2n1)c1ccc(C(=O)NC(CCC(=O)O)C(=O)O)cc1` (stereo not given): inactive: -8.12%.
The same measure for `COc1cccc(Cn2c(=O)cnc3cnc(OC)nc32)c1`: inactive: 3.83%; for `O=C(O)c1cccnc1`: inactive: -15.9%.
